# According to the supplement of paper PMC12217912:
# Some of the results follow. The full chains were built here from the parent and the listed change. Values near 0.05 are background.
# B1: TEV protease; numbered along this chain (parent)
# chain: MGESLFKGPRDYNPISSSICHLTNESDGHTTSLYGIGFGPFIITNKHLFRRNNGTLVVQSLHGVFKVKDTTTLQQHLVDGRDMIIIRMPKDFPPFPQKLKFREPQREERICLVTTNFQTKSMSSMVSDTSCTFPSGDGIFWKHWIQTKDGQCGSPLVSTRDGFIVGIHSASNFTNTNNYFTSVPKNFMELLTNQEAQQWVSGWRLNADSVLWGGHKVFMVKPEEPFQPVKEATQL
# Variants of: B1
# Assay: raw area under fraction-flipped curve 0-4 h after induction (AUC4h, not background-subtracted), DNA-recorder readout of cleavage of the substrate (dimensionless); higher = more cleavage of the substrate by the protease variant
# Conditions: temperature: 34 °C; time window: 0-4 h after rhamnose induction
# Experimental: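 In vivo DNA recorder in E. coli TOP10(DE3) ΔrhaA at 34 °C. Each TEVp single-site mutant (parent TEVp 0) is paired with a single-site variant of the 7-mer TEVs (canonical ENLYFQ|S). The substrate sits between flexible linkers in a Bxb1-sfGFP-TEVs-SsrA fusion, so cleavage stabilises Bxb1 and speeds flipping of a recombination array, read by NGS. The value is the raw area under the fraction-flipped curve over 0-4 h after rhamnose induction (AUC4h), with ≥20 reads per time point. It is not background-subtracted; inactive controls average about 0.047.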
# 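Note: Bxb1 expression induced with 0.2% (w/v) L-rhamnose at OD600 near 0.5, cultures sampled hourly, flipped fraction per protease–substrate barcode pair counted by paired-end Illumina sequencing.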
Variant,area with substrate ENLYFAS,area with substrate ENLYFCS,area with substrate ENLYFDS,area with substrate ENLYFES,area with substrate ENLYFFS,area with substrate ENLYFGS,area with substrate ENLYFHS,area with substrate ENLYFIS,area with substrate ENLYFKS,area with substrate ENLYFLS,area with substrate ENLYFMS,area with substrate ENLYFNS,area with substrate ENLYFPS,area with substrate ENLYFRS,area with substrate ENLYFTS,area with substrate ENLYFVS,area with substrate ENLYFWS,area with substrate ENLYFYS,area with substrate ENLYFSS
MGESLFKGPRDYNPISSSICHLTNESDGHTTSLYGIGFGPFIITNKHLFRRNNGTLVVQSLHGVFKVKDTTTLQQHLVDGRDMIIIRMPKDFPPFPQKLKFREPAREERICLVTTNFQTKSMSSMVSDTSCTFPSGDGIFWKHWIQTKDGQCGSPLVSTRDGFIVGIHSASNFTNTNNYFTSVPKNFMELLTNQEAQQWVSGWRLNADSVLWGGHKVFMVKPEEPFQPVKEATQL [Q105A],0.0562,0.0553,0.0468,0.0605,0.0562,0.0847,0.0636,0.0569,0.0627,0.0647,0.0644,0.06,0.0597,0.0569,0.0647,0.0453,0.0687,0.0496,
MGESLFKGPRDYNPISSSICHLTNESDGHTTSLYGIGFGPFIITNKHLFRRNNGTLVVQSLHGVFKVKDTTTLQQHLVDGRDMIIIRMPKDFPPFPQKLKFREPGREERICLVTTNFQTKSMSSMVSDTSCTFPSGDGIFWKHWIQTKDGQCGSPLVSTRDGFIVGIHSASNFTNTNNYFTSVPKNFMELLTNQEAQQWVSGWRLNADSVLWGGHKVFMVKPEEPFQPVKEATQL [Q105G],0.0525,0.0597,,0.063,0.0615,,0.0588,0.0608,0.0592,,0.0589,0.0606,0.0615,,0.054,,0.0532,0.0605,0.0558
MGESLFKGPRDYNPISSSICHLTNESDGHTTSLYGIGFGPFIITNKHLFRRNNGTLVVQSLHGVFKVKDTTTLQQHLVDGRDMIIIRMPKDFPPFPIKLKFREPQREERICLVTTNFQTKSMSSMVSDTSCTFPSGDGIFWKHWIQTKDGQCGSPLVSTRDGFIVGIHSASNFTNTNNYFTSVPKNFMELLTNQEAQQWVSGWRLNADSVLWGGHKVFMVKPEEPFQPVKEATQL [Q97I],0.0556,,,,0.0789,,,0.0676,,,0.0607,0.0587,,,0.0622,,0.0667,,
MGESLFKGPRDYNPISSSICHLTNESDGHTTSLYGIGFGPFIITNKHLFRRNNGTLVVQSLHGVFKVKDTTTLQQHLVDGRDMIIIRMPKDFPPFPSKLKFREPQREERICLVTTNFQTKSMSSMVSDTSCTFPSGDGIFWKHWIQTKDGQCGSPLVSTRDGFIVGIHSASNFTNTNNYFTSVPKNFMELLTNQEAQQWVSGWRLNADSVLWGGHKVFMVKPEEPFQPVKEATQL [Q97S],0.0651,0.0503,0.0735,0.0656,,,0.0661,,,,,0.0365,,,,,0.0905,,
MGESLFKGPRDYNPISSSICHLTNESDGHTTSLYGIGFGPFIITNKHLFRRNNGTLVVQSLHGVFKVKDTTTLQQHLVDGRDMIIIRMPKDFPPFPQKLKFREPQWEERICLVTTNFQTKSMSSMVSDTSCTFPSGDGIFWKHWIQTKDGQCGSPLVSTRDGFIVGIHSASNFTNTNNYFTSVPKNFMELLTNQEAQQWVSGWRLNADSVLWGGHKVFMVKPEEPFQPVKEATQL [R106W],0.0615,0.0529,0.056,0.0746,0.0751,0.053,0.0577,0.0635,0.0635,0.0541,0.0769,0.0591,0.0599,0.0546,0.0638,0.0632,0.0641,0.0568,0.0615
MGESLFKGPRDYNPISSSICHLTNESDGHTTSLYGIGFGPFIITNKHLFRRNNGTLVVQSLHGVFKVKDTTTLQQHLVDGRDMIVIRMPKDFPPFPQKLKFREPQREERICLVTTNFQTKSMSSMVSDTSCTFPSGDGIFWKHWIQTKDGQCGSPLVSTRDGFIVGIHSASNFTNTNNYFTSVPKNFMELLTNQEAQQWVSGWRLNADSVLWGGHKVFMVKPEEPFQPVKEATQL [I85V],0.116,,,0.0767,0.0739,,,,0.0602,,0.053,0.0577,0.0666,0.0673,0.0617,0.056,0.0627,0.0528,
MGESLFKGPRDYNPISSSICHLTNESDGHTTSLYGIGFGPFIITNKHLFRRNNGTLVVQSLHGVFKVKDTTTLQQHLVDGRDMIIIRMPKDFPPFPQKLKFRWPQREERICLVTTNFQTKSMSSMVSDTSCTFPSGDGIFWKHWIQTKDGQCGSPLVSTRDGFIVGIHSASNFTNTNNYFTSVPKNFMELLTNQEAQQWVSGWRLNADSVLWGGHKVFMVKPEEPFQPVKEATQL [E103W],0.0576,0.0524,,0.0462,0.0666,0.0582,0.0482,0.0494,0.0512,0.0399,0.0639,0.054,0.0564,0.0545,0.0522,0.0496,0.0533,0.0551,0.0713
MGESLFKGPRDYNPISSSICHLTNESDGHTTSLYGIGFGPFIITNKHLFRRNNGTLVVQSLHGVFKVKDTTTLQQHLVDGRDMIIIRMPKDFPPVPQKLKFREPQREERICLVTTNFQTKSMSSMVSDTSCTFPSGDGIFWKHWIQTKDGQCGSPLVSTRDGFIVGIHSASNFTNTNNYFTSVPKNFMELLTNQEAQQWVSGWRLNADSVLWGGHKVFMVKPEEPFQPVKEATQL [F95V],0.0334,,,,0.0524,,,0.0502,,,0.066,,0.0533,,0.0554,,,0.052,
MGESLFKGPRDYNPISSSICHLTNESDGHTTSLYGIGFGPFIITNKHLFRRNNGTLVVQSLHGVFKVKDTTTLQQHLVDGRDMIIIRMPKDFPPWPQKLKFREPQREERICLVTTNFQTKSMSSMVSDTSCTFPSGDGIFWKHWIQTKDGQCGSPLVSTRDGFIVGIHSASNFTNTNNYFTSVPKNFMELLTNQEAQQWVSGWRLNADSVLWGGHKVFMVKPEEPFQPVKEATQL [F95W],0.049,0.0546,,0.0724,0.073,,,0.056,0.0674,0.0729,0.061,0.0696,0.0602,0.068,0.0562,0.0606,0.0472,0.057,
MGESLFKGPRDYNPISSSICHLTNESDGHTTSLYGIGFGPFIITNKHLFRRNNGTLVVQSLHGVFKVKDTTTLQQHLVDGRDMIIIRMPKDFPPFPQKLKFREPQRMERICLVTTNFQTKSMSSMVSDTSCTFPSGDGIFWKHWIQTKDGQCGSPLVSTRDGFIVGIHSASNFTNTNNYFTSVPKNFMELLTNQEAQQWVSGWRLNADSVLWGGHKVFMVKPEEPFQPVKEATQL [E107M],0.0537,0.052,0.0434,0.0623,0.0594,,,,,,,,0.062,0.0576,0.0512,0.0637,0.052,0.0622,
MGESLFKGPRDYNPISSSICHLTNESDGHTTSLYGIGFGPFIITNKHLFRRNNGTLVVQSLHGVFKVKDTTTLQQHLVDGRDMIIIRMPKDFPPFPQKLKFREPQRNERICLVTTNFQTKSMSSMVSDTSCTFPSGDGIFWKHWIQTKDGQCGSPLVSTRDGFIVGIHSASNFTNTNNYFTSVPKNFMELLTNQEAQQWVSGWRLNADSVLWGGHKVFMVKPEEPFQPVKEATQL [E107N],0.063,,,0.0657,0.081,0.0591,,0.0628,0.059,,0.0797,0.0666,0.0545,0.0646,,0.0458,0.0601,,
MGESLFKGPRDYNPISSSICHLTNESDGHTTSLYGIGFGPFIITNKHLFRRNNGTLVVQSLHGVFKVKDTTTLQQHLVDGRDMIIIRMPKDFPPFPQKLKFREPQRKERICLVTTNFQTKSMSSMVSDTSCTFPSGDGIFWKHWIQTKDGQCGSPLVSTRDGFIVGIHSASNFTNTNNYFTSVPKNFMELLTNQEAQQWVSGWRLNADSVLWGGHKVFMVKPEEPFQPVKEATQL [E107K],0.0614,0.0572,,0.0735,0.0586,,0.0584,0.0562,0.0662,,0.0658,0.0739,0.0663,0.0551,0.062,0.0755,0.0503,0.0792,0.0606
MGESLFKGPRDYNPISSSICHLTNESDGHTTSLYGIGFGPFIITNKHLFRRNNGTLVVQSLHGVFKVKDTTTLQQHLVDGRDMIIIRMPKDFPPFPQKLKFREPQRSERICLVTTNFQTKSMSSMVSDTSCTFPSGDGIFWKHWIQTKDGQCGSPLVSTRDGFIVGIHSASNFTNTNNYFTSVPKNFMELLTNQEAQQWVSGWRLNADSVLWGGHKVFMVKPEEPFQPVKEATQL [E107S],0.0539,0.058,0.0551,0.0674,0.0676,0.0506,0.0736,0.0635,0.0614,0.061,0.0691,0.0575,0.0569,0.0524,0.057,,,0.0419,
MGESLFKGPRDYNPISSSICHLTNESDGHTTSLYGIGFGPFIITNKHLFRRNNGTLVVQSLHGVFKVKDTTTLQQHLVDGRDMIIIRMPKDFPPFPQKLKFREPQREVRICLVTTNFQTKSMSSMVSDTSCTFPSGDGIFWKHWIQTKDGQCGSPLVSTRDGFIVGIHSASNFTNTNNYFTSVPKNFMELLTNQEAQQWVSGWRLNADSVLWGGHKVFMVKPEEPFQPVKEATQL [E108V],0.0677,0.0512,,0.0548,0.0666,0.0581,0.0472,0.0493,0.0634,0.0595,0.0593,0.0548,0.0525,0.0607,0.0443,,0.0548,0.0592,0.0583
MGESLFKGPRDYNPISSSICHLTNESDGHTTSLYGIGFGPFIITNKHLFRRNNGTLVVQSLHGVFKVKDTTTLQQHLVDGRDMIIIRMPKDFPPFPQKLKFWEPQREERICLVTTNFQTKSMSSMVSDTSCTFPSGDGIFWKHWIQTKDGQCGSPLVSTRDGFIVGIHSASNFTNTNNYFTSVPKNFMELLTNQEAQQWVSGWRLNADSVLWGGHKVFMVKPEEPFQPVKEATQL [R102W],0.0586,0.0556,,0.0447,,0.0526,0.0421,0.0517,,0.0369,0.054,0.0576,0.0575,0.0506,0.0562,0.0458,0.0451,0.0414,
MGESLFKGPRDYNPISSSICHLTNESDGHTTSLYGIGFGPFIITNKHLFRRNNGTLVVQSLHGVFKVKDTTTLQQHLVDGRDMIIKRMPKDFPPFPQKLKFREPQREERICLVTTNFQTKSMSSMVSDTSCTFPSGDGIFWKHWIQTKDGQCGSPLVSTRDGFIVGIHSASNFTNTNNYFTSVPKNFMELLTNQEAQQWVSGWRLNADSVLWGGHKVFMVKPEEPFQPVKEATQL [I86K],0.0255,0.0463,,0.0392,0.0417,,0.0281,0.0381,0.0324,,,0.0369,,,0.0336,,,0.0442,0.0393
MGESLFKGPRDYNPISSSICHLTNESDGHTTSLYGIGFGPFIITNKHLFRRNNGTLVVQSLHGVFKVKDTTTLQQHLVDGRDMIIERMPKDFPPFPQKLKFREPQREERICLVTTNFQTKSMSSMVSDTSCTFPSGDGIFWKHWIQTKDGQCGSPLVSTRDGFIVGIHSASNFTNTNNYFTSVPKNFMELLTNQEAQQWVSGWRLNADSVLWGGHKVFMVKPEEPFQPVKEATQL [I86E],0.0381,,,0.0402,0.0427,0.031,0.0353,0.0387,,,0.0328,,0.0389,0.0283,0.0607,,0.0329,0.034,
MGESLFKGPRDYNPISSSICHLTNESDGHTTSLYGIGFGPFIITNKHLFRRNNGTLVVQSLHGVFKVKDTTTLQQHLVDGRDMIIIRMPLDFPPFPQKLKFREPQREERICLVTTNFQTKSMSSMVSDTSCTFPSGDGIFWKHWIQTKDGQCGSPLVSTRDGFIVGIHSASNFTNTNNYFTSVPKNFMELLTNQEAQQWVSGWRLNADSVLWGGHKVFMVKPEEPFQPVKEATQL [K90L],0.0603,,0.0869,,0.0746,,0.0578,0.0569,0.0658,0.0522,0.0646,0.0589,0.0568,0.0631,0.0555,0.0507,0.0481,0.0491,0.0491
